Test results: patent publication US8592383B2, “Cycloalkyl-fused tetrahydroquinolines as CRTH2 receptor modulators” (Merck Sharp & Dohme Corp., priority 2011, dated 2013)

What follows are compounds tested against T1, hCRTH2 (Homo sapiens, UniProt Q9Y5Y4) (assay: biochemical). Conditions: Ki (nM), Table A; Radioligand Binding Assay A, [3H]PGD2, HEK-hCRTH2 membranes.
T1 sequence (Q9Y5Y4 1-395): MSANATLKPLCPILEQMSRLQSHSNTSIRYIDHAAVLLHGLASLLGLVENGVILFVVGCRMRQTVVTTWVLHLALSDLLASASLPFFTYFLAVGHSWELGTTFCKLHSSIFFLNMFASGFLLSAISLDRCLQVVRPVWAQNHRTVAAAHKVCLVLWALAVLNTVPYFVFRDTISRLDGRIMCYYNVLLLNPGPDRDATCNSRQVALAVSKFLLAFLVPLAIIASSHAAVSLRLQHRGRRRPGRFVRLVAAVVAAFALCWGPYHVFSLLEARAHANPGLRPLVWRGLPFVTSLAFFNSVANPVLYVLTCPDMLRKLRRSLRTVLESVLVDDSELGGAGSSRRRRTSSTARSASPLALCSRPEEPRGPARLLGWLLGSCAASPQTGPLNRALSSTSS
`CCN(C(=O)CCC(=O)O)C1c2ccccc2N(C(=O)C2CC2c2ccccc2)C2CCCC12` (racemic) [17AF, 4-[ethyl[cis,cis-2,3,3a,4,9,9a-hexahydro-4-[(2-phenyl-1-cyclopropyl)carbonyl]-1H-cyclopenta[b]quinolin-9-yl]amino]-4-oxobutanoic acid] was tested, and the Ki was 201 to 7500 nM. `O=C(O)CCC(=O)N(C1CC1)C1c2ccccc2N(C(=O)OCc2ccc(C(F)(F)F)cc2)C2CCCC21` (single isomer, unassigned) [22O, 4-[[4-(trifluoromethyl)phenyl]methyl] cis, cis-[(3-carboxy-1-oxopropyl)cyclopropylamino]-1,2,3,3a,9,9a-hexahydro-4H-cyclopenta[b]quinoline-4-carboxylate] gave a Ki of 20.1 to 200 nM. `O=C(O)CCC(=O)N(C1CC1)C1c2ccccc2N(C(=O)Cc2cccs2)C2CCCC21` (racemic) [17AZ, 4-(cyclopropyl(cis,cis-4-(2-(thiophen-2-yl)acetyl)-2,3,3a,4,9,9a-hexahydro-1H-cyclopenta[b]quinolin-9-yl)amino)-4-oxobutanoic acid] showed a Ki of 20.1 to 200 nM. In the case of `O=C(O)COC(=O)N(C1CC1)[C@@H]1c2ccccc2N(C(=O)OCc2ccccc2)[C@@H]2CC[C@@H]21` (single isomer, unassigned) [32G], the Ki is reported as 1 to 5 nM. In the case of `CCN(C(=O)CCC(=O)O)C1c2ccccc2N(C(=O)OCc2ccc3occc3c2)C2CCC12` (single isomer, unassigned) [compound 94, 4-((cis, cis-3-((benzofuran-5-ylmethoxy)carbonyl)-1,2,2a,3,8,8a-hexahydrocyclobuta[b]quinolin-8-yl)(ethyl)amino)-4-oxobutanoic acid], the Ki is reported as 20.1 to 200 nM. For `O=C(O)CCC(=O)N(C1CCC1)C1c2ccc(Cl)cc2N(C(=O)c2ccc(F)c(F)c2)C2CCCC21` (single isomer, unassigned) [17Co, 4-[[cis,cis-6-chloro-4-(3,4-difluorobenzoyl)-2,3,3a,4,9,9a-hexahydro-1H-cyclopenta[b]quinolin-9-yl]cyclobutylamino]-4-oxobutanoic acid], the Ki was 5.1 to 20 nM. Compound `CCN(C(=O)CCC(=O)O)C1c2ccccc2N(C(=O)OCc2cccc(F)c2)C2CCC12` (single isomer, unassigned) [compound 92, 4-(ethyl(cis, cis-3-((3-fluorobenzyloxy)carbonyl)-1,2,2a,3,8,8a-hexahydrocyclobuta[b]quinolin-8-yl)amino)-4-oxobutanoic acid] has a Ki of 20.1 to 200 nM. `O=C(O)CCC(=O)N(C1CC1)C1c2ccccc2N(C(=O)c2ccccc2F)C2CCCC21` (racemic) [17AV, 4-(cyclopropyl(cis,cis-4-(2-fluorobenzoyl)-2,3,3a,4,9,9a-hexahydro-1H-cyclopenta[b]quinolin-9-yl)amino)-4-oxobutanoic acid] was tested, and the Ki was 5.1 to 20 nM. `O=C(O)CCC(=O)N(C1CC1)C1c2ccccc2N(C(=O)c2ccccc2OC(F)(F)F)C2CCCC21` (racemic) [17Ao, 4-[cyclopropyl[cis,cis-2,3,3a,4,9,9a-hexahydro-4-[2-(trifluoromethoxy)benzoyl]-1H-cyclopenta[b]quinolin-9-yl]amino]-4-oxobutanoic acid] was tested, and the Ki was 20.1 to 200 nM. `CC(CNC1c2ccccc2N(C(=O)OCc2ccccc2)C2CCCC12)C(=O)O` (racemic) [compound 103, 4-(phenylmethyl) cis, cis-[(2(RS)-carboxypropyl)amino]-1,2,3,3a,9,9a-hexahydro-4H-cyclopenta[b]quinoline-4-carboxylate] gave a Ki of 201 to 7500 nM. Work on `O=C(O)CCC(=O)N(C1CC1)C1c2cc(Br)ccc2N(C(=O)OCc2ccc(F)cc2F)C2CCCC21` (single isomer, unassigned) [compound 49, 4-[(2,4-difluorophenyl)methyl] cis, cis-7-bromo-9-[(3-carboxy-1-oxopropyl)cyclopropylamino]-1,2,3,3a,9,9a-hexahydro-4H-cyclopenta[b]quinoline-4-carboxylate] yielded a Ki of 20.1 to 200 nM. `O=C(O)CCC(=O)N(C1CCC1)C1c2ccc(Cl)cc2N(C(=O)c2ccc(OC(F)(F)F)cc2)C2CCCC21` (single isomer, unassigned) [17CK, 4-[[cis,cis-6-chloro-2,3,3a,4,9,9a-hexahydro-4-[4-(trifluoromethoxy)benzoyl]-1H-cyclopenta[b]quinolin-9-yl]cyclobutylamino]-4-oxobutanoic acid] was tested, and the Ki was 1 to 5 nM. `O=C(O)CCC(=O)N(C1CC1)[C@H]1c2cc(F)ccc2N(C(=O)c2cccc(OC(F)(F)F)c2)[C@H]2CCC[C@H]21` (single isomer, unassigned) [compound 136] gave a Ki of 5.1 to 20 nM. `O=C(O)CCC(=O)N(C1CC1)C1c2ccccc2N(C(=O)c2cccc(Oc3ccccc3)c2)C2CCCC21` (single isomer, unassigned) [18M, 4-[cyclopropyl[cis, cis-2,3,3a,4,9,9a-hexahydro-4-(3-phenoxybenzoyl)-1H-cyclopenta[b]quinolin-9-yl]amino]-4-oxobutanoic acid] gave a Ki of 1 to 5 nM. In the case of `O=C(O)CCC(=O)N(C1CC1)C1c2cc(F)ccc2N(C(=O)c2cc(F)cc(F)c2)C2CCC21` (single isomer, unassigned) [27C, 4-[cyclopropyl[cis, cis-3-(3,5-difluorobenzoyl)-6-fluoro-1,2,2a,3,8,8a-hexahydrocyclobuta[b]quinolin-8-yl]amino]-4-oxobutanoic acid], the Ki is reported as 5.1 to 20 nM. Compound `COc1ccc(NC(=O)N2c3ccccc3C(N(C(=O)CCC(=O)O)C3CC3)C3CCCC32)cc1` (racemic) [23H, 4-[cyclopropyl[cis,cis-2,3,3a,4,9,9a-hexahydro-4-[[(4-methoxyphenyl)amino]carbonyl]-1H-cyclopenta[b]quinolin-9-yl]amino]-4-oxobutanoic acid] has a Ki of 20.1 to 200 nM. Work on `CCC[C@H](OC(=O)N1c2ccccc2C(N(C(=O)CCC(=O)O)C2CC2)C2CCCC21)c1ccccc1` (single isomer, unassigned) [compound 138] yielded a Ki of 5.1 to 20 nM. Work on `CCN(C(=O)CCC(=O)O)C1c2ccccc2N(C(=O)c2ccc3c(c2)OCO3)C2CCC12` (single isomer, unassigned) [compound 95, 4-((cis, cis-3-(benzo[d][1,3]dioxole-5-carbonyl)-1,2,2a,3,8,8a-hexahydrocyclobuta[b]quinolin-8-yl)(ethyl)amino)-4-oxobutanoic acid] yielded a Ki of 20.1 to 200 nM. `O=C(O)CCC(=O)N(C1CCC1)C1c2ccc(Cl)cc2N(C(=O)c2cccc(OC(F)(F)F)c2)C2CCCC21` (single isomer, unassigned) [17CL, 4-[[cis,cis-6-chloro-2,3,3a,4,9,9a-hexahydro-4-[3-(trifluoromethoxy)benzoyl]-1H-cyclopenta[b]quinolin-9-yl]cyclobutylamino]-4-oxobutanoic acid] was tested, and the Ki was 5.1 to 20 nM. `O=C(O)CCC(=O)N(C1CC1)C1c2ccc(Cl)cc2N(C(=O)c2ccc(OC(F)(F)F)cc2)C2CCC21` (single isomer, unassigned) [27K, 4-[[cis, cis-5-chloro-1,2,2a,3,8,8a-hexahydro-3-[4-(trifluoromethoxy)benzoyl]cyclobuta[b]quinolin-8-yl]cyclopropylamino]-4-oxobutanoic acid] showed a Ki of 1 to 5 nM. For `O=C(O)CCCN(c1ccccc1)[C@@H]1c2ccccc2N(C(=O)c2ccc(OC(F)(F)F)cc2)[C@@H]2CCC[C@H]12` (racemic) [compound 129, 4-[[cis,cis-2,3,3a,4,9,9a-hexahydro-4-[4-(trifluoromethoxy)benzoyl]-1H-cyclopenta[b]quinolin-9-yl]phenylamino]butanoic acid], the Ki was 20.1 to 200 nM. `O=C(O)CCC(=O)N(C1CC1)C1c2ccccc2N(C(=O)c2ccc(-c3ccccc3)cc2)C2CCCC21` (racemic) [18C, 4-[[cis,cis-4-([1,1′-biphenyl]-4-ylcarbonyl)-2,3,3a,4,9,9a-hexahydro-1H-cyclopenta[b]quinolin-9-yl]cyclopropylamino]-4-oxobutanoic acid] gave a Ki of 1 to 5 nM. Work on `COc1ccc(CC(=O)N2c3ccccc3C(N(C(=O)CCC(=O)O)C3CC3)C3CCCC32)cc1OC` (racemic) [17BJ, 4-(cyclopropyl(cis,cis-4-(2-(3,4-dimethoxyphenyl)acetyl)-2,3,3a,4,9,9a-hexahydro-1H-cyclopenta[b]quinolin-9-yl)amino)-4-oxobutanoic acid] yielded a Ki of 20.1 to 200 nM. Work on `O=C(O)COC(=O)N(C1CC1)C1c2cc(F)c(Cl)cc2N(C(=O)c2ccc(OC(F)(F)F)cc2)C2CCCC21` (single isomer, unassigned) [17CA, [[[[cis,cis-6-chloro-7-fluoro-2,3,3a,4,9,9a-hexahydro-4-[4-(trifluoromethoxy)benzoyl]-1H-cyclopenta[b]quinolin-9-yl]cyclopropylamino]carbon-yl]oxy]acetic acid] yielded a Ki of 1 to 5 nM. `O=C(O)CCC(=O)N(C1CC1)[C@@H]1c2ccccc2N(C(=O)c2ccc(-c3ncccn3)cc2)[C@@H]2CCC[C@@H]21` (racemic) [compound 18, 4-[Cyclopropyl[cis,cis-2,3,3a,4,9,9a-hexahydro-4-[4-(2-pyrimidinyl)benzoyl]-1H-cyclopenta[b]quinolin-9-yl]amino]-4-oxobutanoic acid] gave a Ki of 20.1 to 200 nM. For `O=C(O)CCC(=O)N(C1CC1)C1c2cc(F)c(F)cc2N(C(=O)OCc2ccccc2)C2CCC21` (single isomer, unassigned) [compound 115, 3-(phenylmethyl) 8-[(3-carboxy-1-oxopropyl)cyclopropylamino]-5,6-difluoro-2,2a,8,8a-tetrahydro-cyclobuta[b]quinoline-3(1H)-carboxylate], the Ki was 201 to 7500 nM. In the case of `COc1cccc(NC(=O)N2c3ccccc3C(N(C(=O)CCC(=O)O)C3CC3)C3CCCC32)c1` (racemic) [23E, 4-[cyclopropyl[cis,cis-2,3,3a,4,9,9a-hexahydro-4-[[(3-methoxyphenyl)amino]carbonyl]-1H-cyclopenta[b]quinolin-9-yl]amino]-4-oxobutanoic acid], the Ki is reported as 20.1 to 200 nM.
